Several values for one entry are separate records, joined by “and”; a condition that tells them apart may be missing. Equal entries are not always repeated. Out of some 230,000 compounds screened, about 1,500 (0.65%) were called active. The inconclusive results got no clear call from the source; some entries with a clear call stand among them for comparison. The call rests on the fitted dose curve; in most records, active means well fitted inhibition curve with a large enough effect; inconclusive means small, poorly fitted or top-dose-only effect; inactive means no such curve, though single readings can be large or run the other way. Potencies beside an inconclusive call are fits to weak or partial responses and may not hold up.
target: Lethal(3)malignant brain tumor-like protein 1 (Homo sapiens) (UniProt Q9Y468); test: qHTS Assay for the Inhibitors of L3MBTL1; conditions: AlphaScreen L3MBTL1–H3K9me1 peptide binding; activity, negative = inhibition: at 57.1 µM (top of the series); further: nearly all actives have a fitted effect of over 60% in size
In short: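 L3MBTL1 50 nM + b-AHA-H3(1-15)K9me1 75 nM, 30 min RT; compound added, 30 min RT; streptavidin donor/Ni-chelate acceptor beads 10 ug/mL each final, 30 min RT dark; AlphaScreen read.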
On the % scale 0 is the no-effect control and ±100 the full control effect; potency means the concentration at half of the fitted maximal effect; tags describe the fitted curve by direction and shape.

Chain of UniProt Q9Y468 (Q9Y468 whole entry, looked up): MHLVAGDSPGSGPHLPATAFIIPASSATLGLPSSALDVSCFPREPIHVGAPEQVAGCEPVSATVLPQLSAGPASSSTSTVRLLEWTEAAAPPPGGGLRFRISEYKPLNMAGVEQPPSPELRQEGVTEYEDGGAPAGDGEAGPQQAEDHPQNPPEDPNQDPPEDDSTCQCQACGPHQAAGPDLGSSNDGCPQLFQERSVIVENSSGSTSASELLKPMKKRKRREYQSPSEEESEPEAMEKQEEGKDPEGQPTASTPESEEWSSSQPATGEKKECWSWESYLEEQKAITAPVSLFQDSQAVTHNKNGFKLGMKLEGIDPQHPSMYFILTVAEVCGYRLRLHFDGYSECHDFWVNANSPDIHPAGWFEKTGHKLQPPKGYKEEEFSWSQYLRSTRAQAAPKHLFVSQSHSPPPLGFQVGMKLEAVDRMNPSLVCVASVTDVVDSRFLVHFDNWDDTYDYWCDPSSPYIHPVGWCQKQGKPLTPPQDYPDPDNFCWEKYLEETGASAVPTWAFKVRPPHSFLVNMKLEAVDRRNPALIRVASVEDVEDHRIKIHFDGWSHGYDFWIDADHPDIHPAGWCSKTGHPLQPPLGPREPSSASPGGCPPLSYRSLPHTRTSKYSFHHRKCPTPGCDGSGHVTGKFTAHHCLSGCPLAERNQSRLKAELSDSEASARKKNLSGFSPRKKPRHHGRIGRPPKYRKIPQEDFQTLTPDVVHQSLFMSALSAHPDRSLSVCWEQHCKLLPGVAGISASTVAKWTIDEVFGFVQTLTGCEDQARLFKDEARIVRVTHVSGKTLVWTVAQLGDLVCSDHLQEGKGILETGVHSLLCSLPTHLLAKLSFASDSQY

Compound	Potency	activity, negative = inhibition
O=C(Nc1ccc(N2CCOCC2)c(Cl)c1)c1ncn[nH]1	inconclusive: 22.4 µM [inhibitor, single point]	–
CCOC(=O)N1CCC(N2C(=O)c3ccc(C(=O)NCc4ccc(F)cc4)cc3C2=O)CC1	inconclusive: 5.62 µM [inhibitor, single point]	–
C(=C\c1ccco1)/c1ccc2ccccc2n1	active: 14.1 µM	–
CCOC(=O)N1CCN(C(=O)CSc2nc3c([nH]c4ccccc43)c(=O)n2C)CC1	inconclusive: 7.08 µM [inhibitor, single point]	–
CN(c1ccccc1)S(=O)(=O)c1ccc(C(=O)Nc2nnc(C3CC3)o2)cc1	inactive	–
OCCN(Cc1ccccc1)Cc1ccccc1O	inactive	–
Clc1ccc(/C=N/N2CCCCC2)cc1	inconclusive: 39.8 µM [inhibitor, partial curve]	–
CN(C)c1ccc(CN(CC2CCCO2)C(=O)c2cc3ccccc3o2)cc1 (centres undefined)	inconclusive: 3.55 µM [inhibitor, single point]	–
COc1ccc(OC)c(-c2nc3cc4ccccc4cc3nc2-c2ccccc2)c1	inactive	–
CCN(c1ccc(NC(=O)c2ccc(N3CCCC3=O)cc2)cc1)C(C)C	inactive	–
CC(C)CNc1nc(S(=O)(=O)c2ccccc2)c(Cl)s1	inactive	–
Brc1cccc(CNc2nc3ccccc3n2CCN2CCCCC2)c1	inconclusive: 28.2 µM [inhibitor, partial curve]	–
CCOc1ccc([C@@H]2CC=C(C(=O)O)[C@H](c3ccc(F)cc3)N2S(=O)(=O)c2ccc(C)cc2)cc1	inconclusive: 5.62 µM [inhibitor, single point]	–
Cc1ccc(C2(C(F)(F)F)NC(=O)N3CCCN=C3S2)cc1 (centres undefined)	inactive	–
COc1ccccc1OCCCCN1CCN(C(c2ccccc2)c2ccccc2)CC1	inconclusive: 35.5 µM [inhibitor, single point]	–
Cc1cccc(-n2c(CCc3ccccc3)nnc2SCC(=O)c2ccccc2)c1	inactive	–
Cc1cc(/C=C2/C(=O)NN(c3ccccc3)C2=O)c(C)n1-c1cccc(O)c1	inconclusive: 12.6 µM [inhibitor, partial curve]	–
Oc1cc(NCCN2CCOCC2)cc2cccnc12	inconclusive: 35.5 µM [inhibitor, single point] and inconclusive: 28.2 µM [inhibitor, single point]	–
COc1ccc(NC2c3ccccc3C(=O)N2c2ccccn2)cc1 (centres undefined)	inconclusive: 35.5 µM [inhibitor, partial curve]	–
Cc1ccc(S(=O)(=O)N(C)c2ccc(OCC(=O)Nc3nnc(C4CC4)s3)cc2)cc1	inconclusive: 0.708 µM [inhibitor, full curve, poor fit]	–
CCC(=O)N1CCc2cc(OC)c(OC)cc2C1COc1ccc(OC)cc1 (centres undefined)	inconclusive: 39.8 µM [inhibitor, partial curve]	–
CCOc1ccc(NC(=S)Nc2cc(-c3ccccc3)[nH]n2)cc1	inconclusive: 25.1 µM [inhibitor, single point]	–
COc1cccc(C(NC(C)=O)c2ccc3cccnc3c2O)c1 (centres undefined)	inconclusive: 35.5 µM [inhibitor, single point]	–

Compound	Potency	activity, negative = inhibition
CC1=NN(Cc2ccccc2)C(=O)/C1=C\c1ccc(N(C)C)cc1	inconclusive: 31.6 µM [inhibitor, partial curve]	–
CCc1ccccc1N(CC(=O)NC(C)(C)C)C(=O)CCC(=O)Nc1ccccn1	inactive	–
COc1cc(NC(=S)N2CCCCC2C)cc(OC)c1OC (centres undefined)	inconclusive: 39.8 µM [inhibitor, single point]	–
CC1CCCCC1NC(=O)COC(=O)c1c2c(nc3ccccc13)/C(=C/c1ccco1)CC2 (centres undefined)	inconclusive: 12.6 µM [inhibitor, partial curve, poor fit]	–
COC(=O)c1ccc(OC(=O)CS(=O)c2ccccc2[N+](=O)[O-])cc1 (centres undefined)	inactive	–
C=CCNc1nc(-c2c(C)nc3sccn23)cs1	inactive	–
N#C/C(=C\c1ccc(-c2ccc(C(=O)O)cc2)o1)C(=O)NCC1CCCO1 (centres undefined)	inconclusive: 31.6 µM [inhibitor, single point]	–
COc1ccccc1-c1nc(C#N)c(N2CCN(c3ccccc3)CC2)o1	inconclusive: 25.1 µM [inhibitor, single point]	–
CCOC(=O)/C(C#N)=C1\C=CN(C)C(C)=N1	inconclusive: 6.31 µM [inhibitor, single point]	–
Cn1c(-c2ccc(N)cc2)nc2ccccc21	inactive	–
CC(C)(C)c1ccc2c(c1)OC(C(=O)N/N=C\c1ccc(-c3cccc(C(=O)O)c3)o1)CO2 (centres undefined)	active: 15.8 µM	–
O=C(CN1CCN(S(=O)(=O)/C=C/c2ccccc2)CC1)NC(=O)NCc1ccco1	inconclusive: 17.8 µM [inhibitor, partial curve]	–
O=C(CCS(=O)(=O)c1cccc2nonc12)NCc1ccc(Cl)cc1	inactive	–
CCOc1ccc(/C=C2/SC(=O)NC2=S)cc1	inactive	–
N#Cc1c(N2CCN(c3ccc(F)cc3)CC2)nc(N)c2c(N)nc3c(c12)CC(=O)N3C1CC1	inconclusive: 39.8 µM [inhibitor, single point]	–
O=C(Nc1nc(-c2ccco2)c(-c2ccco2)s1)c1ccco1	inconclusive: 31.6 µM [inhibitor, single point]	–
COCCCn1cnc2c(c1=O)c1nc3ccccc3nc1n2-c1ccc(C)cc1	inactive	–
CCOc1ccc(S(=O)(=O)N2CCOCC2)cc1NC(=O)C1CSC2(C)CCC(=O)N12 (centres undefined)	inactive	–
CC1CCc2[nH]c3ccc(C(=O)N(C)CC(=O)Nc4ccccc4Br)cc3c2C1 (centres undefined)	inconclusive: 20 µM [inhibitor, single point]	–
Cc1c(C(=O)O)cccc1-n1c(C)cc(C=O)c1C	inconclusive: 25.1 µM [inhibitor, single point]	–
CCNC(=S)Nc1cc(-c2ccc(Cl)cc2)[nH]n1	inconclusive: 25.1 µM [inhibitor, single point]	–
CC(=O)NC(c1ccc2ccccc2c1)c1ccc2cccnc2c1O (centres undefined)	inconclusive: 39.8 µM [inhibitor, single point]	–
CCCC(C(=O)O)n1c(O)c(C=C2N=c3ccccc3=N2)sc1=S (centres undefined)	inactive	–

Compound	Potency	activity, negative = inhibition
CCCc1nnc(NC(=O)CCC(=O)NC2CCCc3ccccc32)s1 (centres undefined)	inconclusive: 7.08 µM [inhibitor, partial curve, poor fit]	–
COc1ccc([C@H]2C(C(=O)O)=C[C@@H](C(C)(C)C)N2S(=O)(=O)c2ccc(C)cc2)cc1OC	inactive	–
COc1ccccc1C(=O)N/C(=C\c1ccc(Br)cc1)C(=O)NCCC(=O)O	inconclusive: 17.8 µM [inhibitor, partial curve]	–
CCOC(=O)C1=C(C)N(C)C(=S)NC1c1cccc(Cl)c1Cl (centres undefined)	inconclusive: 22.4 µM [inhibitor, partial curve, poor fit]	–
O=C(NCc1ccccc1Cl)c1ccc2c(=O)n(CCCN3CCCC3=O)c(=S)[nH]c2c1	inactive	–
NC(=S)NNC(=O)[C@@H]1CCCC[C@@H]1C(=O)O	inactive	–
Cc1cccc(N2C(=O)/C(=C/c3cccnc3)SC2=S)c1	inconclusive: 28.2 µM [inhibitor, single point]	–
[O-][n+]1onc2c1CCC(=N/O)/C2=N\Nc1ccccc1	inconclusive: 31.6 µM [inhibitor, single point]	–
O=C(/C=C/c1ccc2ccccc2n1)c1cc(Br)ccc1O	inconclusive: 35.5 µM [inhibitor, partial curve]	–
CCN1CCN(CC(=O)N2CCCC(C(=O)c3ccc(Oc4ccccc4)cc3)C2)CC1 (centres undefined)	inconclusive: 14.1 µM [inhibitor, partial curve]	–
CCC(COC)Oc1cc(NCc2ccccc2)c2ncn(C(C)C)c2c1 (centres undefined)	inconclusive: 17.8 µM [inhibitor, single point]	–
C[C@H](CO)N1C[C@H](C)[C@@H](CN(C)C(=O)Nc2ccc(C(F)(F)F)cc2)Oc2c(NC(=O)Nc3ccc(C(F)(F)F)cc3)cccc2C1=O	inconclusive: 0.708 µM [inhibitor, single point]	–
COc1cccc(NC(=O)CN(c2ccc([N+](=O)[O-])cc2)S(=O)(=O)c2ccccc2)c1	inactive	–
Cc1csc(NC(=O)C2C3C=CC(O3)C2C(=O)O)n1 (centres undefined)	inconclusive: 4.47 µM [inhibitor, single point]	–
C=CC[N+](C)(C)CCN1C(=O)C2C(c3ccccc3)C=CC(c3ccccc3)C2C1=O (centres undefined)	inconclusive: 6.31 µM [inhibitor, single point]	–
Cc1nc(SCC(=O)c2ccccc2)c(C#N)c(-c2ccco2)c1C(=O)NCc1ccco1	inconclusive: 35.5 µM [inhibitor, single point]	–
NNC(=O)c1nc[nH]c1C(=O)Nc1ccccn1	inconclusive: 14.1 µM [inhibitor, partial curve, poor fit]	–
N=C1/C(=C\c2ccc(-c3cccc(C(=O)O)c3)o2)C(=O)N=C2SC=C(c3ccccc3)N12	active: 22.4 µM	–
On1ccccc1=S	inactive	–
O=C1C(c2ccccc2)=[N+]([O-])c2ccccc21	inconclusive: 35.5 µM [inhibitor, single point]	–
COC(=O)c1ccccc1NC(=O)/C=C/c1ccco1	inconclusive: 25.1 µM [inhibitor, single point]	–
CCOc1ccccc1NC(=O)COc1coc(CN2CCc3ccccc32)cc1=O	inconclusive: 20 µM [inhibitor, partial curve]	–
COc1cccc(CNCc2ccccc2Br)c1OC	–	inactive: 1.56% [at 2.29 µM]
